PubChem BioAssay AID540267 (National Center for Advancing Translational Sciences (NCATS), 2011)
About 530 (0.16%) of roughly 340,000 compounds were called active. This list was built around the results that the source calls inconclusive (neither active nor inactive); the mix of calls is not that of the screen. Rule as the data show it: active = activity change below about -80%; inconclusive = between about -30% and that limit; inactive = weaker than that.

assay: Small Molecules that selectively kill Giardia lamblia: qHTS; conditions: Giardia lamblia trophozoite viability; at 7.66 µM; active compounds read low;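 also: parasites exposed to compound for two days anaerobically before the ATP read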
Excerpt: Giardia lamblia is a human pathogen afflicting impoverished nations, and the most common cause of outbreaks of diarrhea in the United States. Giardia has been classified by the CDC as a category B bioterrorism organism. The favored anti giardiasis drugs in the US are metronidazole or tinidazole, compounds that have undesirable side effects. Moreover, increasing resistance to drug regimes and recurrence are a concern. It is thus clear that alternative drug treatments are needed.
In a collaboration between the University of Maryland, College Park and the NIH Chemical Genomics Center, a bioluminescence Giardia viability assay based on the trophozoites' ATP content was developed. This assay is suitable for high throughput screening, and miniaturized the assay for compound screening in 1536-well plates. The goal of the project is to screen the Molecular Libraries Small Molecule Repository (MLSMR) for compounds that selectively kill Giardia trophozoites.
NIH Chemical Genomics Center [NCGC]
NIH Molecular Libraries Probe Centers Network [MLPCN]
Assay Submitter (PI): Osnat Herzberg, University of Maryland, College Park, MD.
1. Dispense 2 ul/well media
2. Dispense 23 nl/well compounds
3. Dispense 4 ul/well Giardia trophozoites at a concentration of 100 cells/well
4. Incubate 48 hrs at 37 deg C anaerobically
5. Dispense 4 ul/well ATPLite 1-Step Luminescence assay kit
6. Incubate 15-30 min at room temperature
7. Read luminescence signal on ViewLux plate reader
% is scaled to controls: 0 for no effect and ±100 for the full control effect.

| SMILES | activity change |
| --- | --- |
| CN(C(=O)c1ccc(F)c(S(=O)(=O)N2CCOCC2)c1)C1CCCCC1 | inconclusive: -46% [inhibitor] |
| COC(=O)c1ccc(CNC(=O)COC(=O)Cc2ccsc2)cc1 | inconclusive: -31.7% [inhibitor] |
| Cc1ccc(S(=O)(=O)Nc2nnc(CC(C)(C)C)s2)cc1 | inactive: -18.4% |
| O=S(=O)(Nc1cccc2c1CCCC2)c1ccc(Cl)cc1 | inactive: -1.7% |
| CCC1C(C#N)=C(SCC(N)=O)NC2=C1C(=O)CC(C)(C)C2 (stereo not drawn) | inactive: -4.18% |
| Cc1cc(C)c(S(=O)(=O)Nc2nnc(C)s2)c(C)c1 | inactive: 14.9% |
| Cc1cc(=S)nc(-c2ccccn2)[nH]1 | inconclusive: -77.5% [inhibitor] |
| O=C(c1ccco1)N1CCN(Cc2cc(=O)c(OCc3ccc([N+](=O)[O-])cc3)co2)CC1 | inconclusive: -59.6% [inhibitor] |
| O=C1SCCN1N=Cc1ccc([N+](=O)[O-])o1 | active: -84.8% |
| O=C1C2C3C=CC(C3)C2C(=O)N1Nc1ccc([N+](=O)[O-])cc1[N+](=O)[O-] (stereo not drawn) | inconclusive: -63.8% [inhibitor] |
| O=C(CN1C(=O)c2ccccc2S1(=O)=O)c1cccc(Br)c1 | inconclusive: -33.8% [inhibitor] |
| COC(=O)C1CCN(S(=O)(=O)Cc2ccccc2)CC1 | inconclusive: -41.9% [inhibitor] |
| CCOC(=O)CNC(=S)N(Cc1cccs1)C1CCCCC1 | inactive: -10.3% |
| COc1cccc(NCc2ccc([N+](=O)[O-])s2)c1 | inconclusive: -52.8% [inhibitor] |
| COC(=O)c1sccc1NC(=S)N1CC(C)CC(C)C1 (stereo not drawn) | inconclusive: -37.9% [inhibitor] |
| Cc1ccc(-c2csc3ncnc(N4CCN(c5ccccc5O)CC4)c23)cc1 | inconclusive: -33.7% [inhibitor] |
| CS(=O)(=O)N1CCN(c2ccccc2NC(=O)c2cc(Br)ccc2Cl)CC1 | inactive: -2.5% |
| COC(=O)c1ccc(CSC(=N)N)o1 | inactive: -13.3% |
| CCc1ccc(-c2nc(SCC(=O)N3CCOCC3)n[nH]2)cc1 | inconclusive: -30.3% [inhibitor] |
| Cc1ccc(C(=O)NC2CC3CCCC(C2)N3C(=S)NCc2ccco2)cc1 (stereo not drawn) | inconclusive: -32.3% [inhibitor] |
| COc1cccc(CNS(=O)(=O)c2ccc3c(c2)CC(C)N3C(=O)C2CC2)c1 (stereo not drawn) | inactive: -10.5% |
| O=C(NCCCN1CCCCC1)C1CCN(S(=O)(=O)N2CCC3(CC2)OCCO3)CC1 | inconclusive: -36.6% [inhibitor] |
| CN(C(=O)c1ccc(NC(=O)Cc2ccc(NC(=O)C3CCCN(S(=O)(=O)c4cccc([N+](=O)[O-])c4)C3)cc2)cc1)C1CCCC1 (stereo not drawn) | inconclusive: -45.9% [inhibitor] |
